Assay results from PMC11094793, “Discovery of LLC0424 as a Potent and Selective in Vivo NSD2 PROTAC Degrader” (Journal of Medicinal Chemistry, 2024).

Tested on: VCaP cells
Test: TMT global proteomics in VCaP cells
Type: cell-based, human
Details: for Abundance Ratio (log2): (LLC0424) / (DMSO): VCaP
Method: We conducted a global proteomic assay using tandem mass tags (TMT) labeled mass-spectrometry to unbiasedly quantify the protein change upon LLC0424 treatment in VCaP and RPMI-8402 cells. […] We further used SEM cell line to cross-validate the selectivity of LLC0424 for NSD2 over NSD1 and NSD3 as well as CRBN neo-substrates IKZF1, IKZF3, GSPT1, and CK-1α using immunoblotting. […] When we increased the treatment time of LLC0424 in SEM cells, we observed mild decrease of GSPT1 from 12 h (SI, Figure S3F).
Figure 5 LLC0424 was a selective NSD2 degrader. (A) Unbiased global proteomics analysis of LLC0424 in VCaP cells after 6 h treatment of DMSO or 2 μM LLC0424. (B) Mass-spec quantification of NSD2 protein. (C) Heatmap for the level of PWWP-1 domain-containing proteins in VCaP cells treated with DMSO or 2 μM LLC0424. (D) Immunoblotting of NSD2, NSD1, NSD3, GSPT1, CK-1α, IKZF1, IKZF3, and H3 in SEM cells treated with 2 μM LLC0424 for various time points.
RPMI-8402 cells were plated at 10 × 10^6 cells per plate on 10 cm tissue culture plates overnight before treating with DMSO (control) or 2 μM LLC0424 with 3 replicates for each treatment. After 8 h, whole cell lysates were collected using RIPA buffer (ThermoFisher Scientific) and quantified using Pierce Bovine Serum Albumin Standard Pre-Diluted Set (ThermoFisher Scientific). Cell lysates were proteolyzed and labeled with TMT 6-plex Isobaric Label Reagent (ThermoFisher Scientific) according to the protocol from the manufacturer and subjected to 8 fractions of liquid chromatography–mass spectrometry (LC-MS)/MS analysis as described.[33] We plotted the results using graphpad prism. To gain protein changes with high confidence, we screened the results of (LC-MS)/MS analysis with the criteria of peptides number >4 and unique peptides number >1.

O=C1CCC(N2C(=O)c3ccc(N4CCC(NC(=O)c5ccc(NC(=O)c6ccc(CN(C(=O)c7ccc8c(c7)OCC(=O)N8)C7CC7)cc6)cc5)CC4)cc3C2=O)C(=O)N1 (stereo not drawn) [compound 10l, N-Cyclopropyl-N-(4-((4-((1-(2-(2,6-dioxopiperidin-3-yl)-1,3-dioxoisoindolin-5-yl)piperidin-4-yl)carbamoyl)phenyl)carbamoyl)benzyl)-3-oxo-3,4-dihydro-2H-benzo[b][1,4]oxazine-7-carboxamide]
proteins significantly decreased in global proteomics (VCaP cells, 2 μM, 6 h): only NSD2 significantly decreased | Abundance Ratio (log2): (LLC0424) / (DMSO) (protein accession O75369): -0.01 | Abundance Ratio (log2): (LLC0424) / (DMSO) (protein accession P78527): 0.01 | Abundance Ratio (log2): (LLC0424) / (DMSO) (protein accession Q13813): 0.04 | Abundance Ratio (log2): (LLC0424) / (DMSO) (protein accession Q15149): -0.06 | selectivity for NSD2 over other PWWP domain-containing proteins (global proteomics, both cell lines (VCaP and RPMI-8402), 2 μM): selective for NSD2 over other PWWP domain-containing proteins
